The campaign covered roughly 310,000 compounds. About 14,000 (4.5%) showed an effect of 50% or more. The effect is printed as a negative number. This is one part of the list.
target: human ether-à-go-go-related gene (hERG) potassium channel (human, UniProt Q12809); assay: primary screen, population patch clamp on CHO cells stably expressing hERG
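Note: peak tail current of the secondary pulse compared with the same well before compound.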

Chain of human ether-à-go-go-related gene (hERG) potassium channel (Q12809 whole entry, looked up): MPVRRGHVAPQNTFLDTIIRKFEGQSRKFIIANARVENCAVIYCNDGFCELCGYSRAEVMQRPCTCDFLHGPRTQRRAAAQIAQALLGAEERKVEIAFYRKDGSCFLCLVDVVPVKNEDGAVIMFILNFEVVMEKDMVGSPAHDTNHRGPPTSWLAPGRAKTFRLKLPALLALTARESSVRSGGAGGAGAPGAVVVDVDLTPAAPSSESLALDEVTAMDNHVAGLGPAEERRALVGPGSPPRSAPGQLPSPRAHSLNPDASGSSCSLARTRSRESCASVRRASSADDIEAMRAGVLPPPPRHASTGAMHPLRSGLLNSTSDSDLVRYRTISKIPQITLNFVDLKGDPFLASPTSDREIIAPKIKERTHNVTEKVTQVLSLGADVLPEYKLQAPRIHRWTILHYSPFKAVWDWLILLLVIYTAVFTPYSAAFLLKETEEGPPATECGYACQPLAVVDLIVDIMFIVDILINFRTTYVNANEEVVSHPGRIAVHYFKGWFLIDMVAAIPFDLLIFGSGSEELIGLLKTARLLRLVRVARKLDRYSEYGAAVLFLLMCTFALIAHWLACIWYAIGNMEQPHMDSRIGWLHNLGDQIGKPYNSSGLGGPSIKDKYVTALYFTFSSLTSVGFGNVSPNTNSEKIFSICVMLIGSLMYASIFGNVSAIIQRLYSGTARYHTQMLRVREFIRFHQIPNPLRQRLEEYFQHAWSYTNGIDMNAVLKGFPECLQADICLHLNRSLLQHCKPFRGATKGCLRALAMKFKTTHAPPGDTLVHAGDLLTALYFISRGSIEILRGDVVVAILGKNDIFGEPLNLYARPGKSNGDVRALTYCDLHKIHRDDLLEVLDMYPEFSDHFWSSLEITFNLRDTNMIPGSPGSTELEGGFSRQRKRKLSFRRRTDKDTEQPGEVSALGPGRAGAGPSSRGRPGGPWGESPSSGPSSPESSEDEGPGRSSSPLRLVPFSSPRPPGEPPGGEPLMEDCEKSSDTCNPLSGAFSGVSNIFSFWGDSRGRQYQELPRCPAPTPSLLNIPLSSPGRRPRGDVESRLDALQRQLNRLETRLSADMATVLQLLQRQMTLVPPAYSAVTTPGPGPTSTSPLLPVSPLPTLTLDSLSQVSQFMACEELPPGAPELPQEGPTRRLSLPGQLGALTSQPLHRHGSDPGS

Structure (SMILES) | hERG current change (%, negative = inhibition) at 10uM [%]
CCCNC(=O)c1cccc(COc2ccccc2OC)c1 | -5.92
CCOc1ccc2oc(C(=O)NCc3ccccc3CN3CCCC3)c(C)c2c1 | -66.2
Cc1cc(=O)oc2cc(OCC(=O)N3CCN(C(=O)c4ccco4)CC3)ccc12.Cl | -32.6
COc1ccc(CCCc2nnc(SCC(=O)Nc3cc(C)ccc3C)o2)cc1 | 0.676
CN(C)CCCN(C(=O)c1ccc(S(=O)(=O)N2CCCCCC2)cc1)c1nc2c(F)cccc2s1.Cl | -66.2
CCOc1ccc(CCNC(=O)CCOc2cc(C)ccc2C)cc1OCC | -1.15
CC(C(=O)Nc1ccc2c(c1)OCO2)N(c1ccc(Cl)cc1)S(C)(=O)=O (stereo not shown) | -31.8
COc1ccccc1Oc1nc(-c2ccccc2)cc(C)c1S(C)(=O)=O | -6.11
Cc1ccc(C(CNC(=O)Nc2ccccc2)N2CCN(C)CC2)cc1 (stereo not shown) | -28.9
Cc1ccc(C)c(N2CCN(C(=O)CCS(=O)(=O)c3ccc4c(c3)NC(=O)CO4)CC2)c1 | -0.942
CCN1CCN(c2cc(C)c3cc(NC(=S)N4CCCC4)ccc3n2)CC1 | -15.9
CCC(C)N(C(=O)COC(=O)c1ccccc1SCC(=O)N1CCCC1)C1CCS(=O)(=O)C1 (stereo not shown) | 3.36
CCOC(=O)c1sc(=S)sc1SCc1cccc(C(F)(F)F)c1 | 21.9
CC(Oc1ccccc1F)C(=O)NNC(=O)c1ccc(F)c(S(=O)(=O)N2CCOCC2)c1 (stereo not shown) | 0.308
COC(=O)C1=CN(Cc2ccc(OC)c(OC)c2)C=C(C(=O)OC)C1c1ccc(F)cc1 | -3.86
C=CCSc1nnc(NC(=O)Cc2ccc(OC)c(OC)c2)s1 | 11.7
CCOc1ccc(S(=O)(=O)N(CC(=O)NN=C2CCN(C)CC2)c2ccc(C)cc2)cc1 | -12.3
Oc1ccc(-c2nc3ccccn3c2NCc2ccc3c(c2)OCO3)cc1 | -45.8
COc1ccc(N2CCN(C(=O)c3ccc4c(c3)NC(=O)C(CSCc3cccc(F)c3)N4)CC2)cc1 (stereo not shown) | 13.8
CCOc1ccc(NC(=O)C2CC(C)=C(C)CC2C(=O)O)cc1 (stereo not shown) | -6.91
Cc1cc(=O)n2nc(N3CCC(C(=O)NCc4cccc(Br)c4)CC3)sc2n1 | -51.4
CS(=O)(=O)N(CC(=O)N1CCCCC1)c1sc2c(c1C#N)CCCC2 | -18.4

Reference: publication PMC4336329 (PLoS ONE, 2015)
